A lower IC50 marks a more sensitive line; a fit beyond the top or the lowest dose is shown as a bound at that dose. For AUC the same curve is integrated over the 256-fold range of doses and scaled to a fraction; the more sensitive the line, the further below 1. For some assays here: An inferred top dose is not printed in the source and was worked back from the curve model. For some assays here: Drugs with an entry number were screened twice under separate entries, and the two screens often disagree.
Legend:
Experiment in all cases: Viability of human cancer cell lines after 72 h of drug (GDSC screen)
EX-527 = compound: NC(=O)C1CCCc2c1[nH]c1ccc(Cl)cc21 [EX-527]; details: top dose 20 µM
Description: (§1)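 Human cancer cell lines in 384-well plates, medium with 10% serum, drug for 72 h over a 256-fold dose range (nine 2-fold or five 4-fold steps up to the top dose). Adherent lines were fixed and stained with the nucleic acid dye Syto60, suspension lines read with resazurin; signal relative to control wells, capped at 0 and 100%. One two-parameter sigmoid per drug and line, fitted in a mixed model over all curves with the slope shared within a line.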

AZD6244 = compound: Cn1cnc2c(F)c(Nc3ccc(Br)cc3Cl)c(C(=O)NOCCO)cc21 [AZD6244]; details: top dose 4 µM; screen: GDSC drug entry 1498; top dose inferred
Description: as §1

YM201636 = compound: Nc1ccc(C(=O)Nc2cccc(-c3nc(N4CCOCC4)c4oc5ncccc5c4n3)c2)cn1 [YM201636]; details: top dose 5.12 µM; top dose inferred
Description: as §1

AS601245 = compound: N#CC(c1ccnc(NCCc2cccnc2)n1)c1nc2ccccc2s1 [AS601245]; details: top dose 8 µM; top dose inferred
Description: as §1

Cell Line | AUC (EX-527) | IC50 (EX-527) [µM] | AUC (AZD6244) | IC50 (AZD6244) [µM] | AUC (YM201636) | IC50 (YM201636) [µM] | AUC (AS601245) | IC50 (AS601245) [µM]
OV-56 (ovary, adherent) | 0.989 | > 20 | 0.889 | > 4 | 0.906 | > 5.12 | – | –
OV-90 (ovary, adherent) | 0.97 | > 20 | 0.493 | 0.237 | 0.885 | > 5.12 | – | –
OVCA420 (ovary, adherent) | 0.981 | > 20 | 0.599 | 0.513 | 0.883 | > 5.12 | – | –
OVCA433 (ovary, adherent) | 0.98 | > 20 | 0.727 | 1.2 | 0.929 | > 5.12 | – | –
OVK-18 (ovary, adherent) | 0.978 | > 20 | 0.875 | > 4 | 0.903 | > 5.12 | – | –
P12-ICHIKAWA (T-cell lymphoblastic leukaemia, suspension) | 0.973 | > 20 | 0.994 | > 4 | – | – | 0.949 | > 8
PEO1 (ovary, adherent) | 0.984 | > 20 | 0.911 | > 4 | 0.979 | > 5.12 | – | –
QGP-1 (pancreas, adherent) | 0.973 | > 20 | 0.792 | 3.29 | 0.9 | > 5.12 | – | –
RCC-AB (kidney, adherent) | 0.975 | > 20 | 0.853 | > 4 | 0.82 | 4.17 | – | –
RCC-ER (kidney, adherent) | 0.986 | > 20 | 0.943 | > 4 | 0.986 | > 5.12 | – | –
RCC-FG2 (kidney, adherent) | 0.979 | > 20 | 0.926 | > 4 | 0.844 | > 5.12 | – | –
RCC-JF (kidney, adherent) | 0.98 | > 20 | 0.689 | 0.908 | 0.911 | > 5.12 | – | –
RCC-JW (kidney, adherent) | 0.986 | > 20 | 0.9 | > 4 | 0.977 | > 5.12 | – | –
RCC-MF (kidney, adherent) | 0.98 | > 20 | 0.885 | > 4 | 0.74 | 1.95 | – | –
SCC90 (head and neck, adherent) | – | – | 0.589 | 0.486 | – | – | 0.935 | > 8
SK-GT-4 (oesophagus, adherent) | 0.982 | > 20 | 0.551 | 0.356 | 0.924 | > 5.12 | – | –
SK-MEL-5 (melanoma, adherent) | 0.982 | > 20 | 0.593 | 0.478 | 0.983 | > 5.12 | – | –
SK-MG-1 (glioma, adherent) | 0.987 | > 20 | 0.954 | > 4 | 0.924 | > 5.12 | – | –
SNU-61 (large intestine, adherent) | 0.985 | > 20 | 0.885 | > 4 | 0.916 | > 5.12 | – | –
SNU-81 (large intestine, adherent) | 0.981 | > 20 | 0.768 | 2.01 | 0.955 | > 5.12 | – | –
SNU-407 (large intestine, adherent) | 0.976 | > 20 | 0.767 | 1.73 | 0.773 | 2.34 | – | –
SNU-1040 (large intestine, adherent) | 0.976 | > 20 | 0.96 | > 4 | 0.835 | > 5.12 | – | –
SNU-C5 (large intestine, adherent) | 0.986 | > 20 | 0.804 | 2.26 | 0.948 | > 5.12 | – | –
STS-0421 (soft tissue, adherent) | – | – | 0.909 | > 4 | – | – | 0.828 | 6.07
SU-DHL-10 (B-cell lymphoma, suspension) | 0.998 | > 20 | 0.996 | > 4 | 0.78 | 1.52 | – | –
SW1116 (large intestine, adherent) | 0.98 | > 20 | 0.742 | 1.61 | 0.985 | > 5.12 | – | –
TE-4 (oesophagus, adherent) | 0.985 | > 20 | 0.938 | > 4 | 0.983 | > 5.12 | – | –
U-2-OS (osteosarcoma, adherent) | 0.985 | > 20 | 0.842 | 3.19 | – | – | 0.973 | > 8
UWB1.289 (ovary, adherent) | 0.98 | > 20 | 0.834 | > 4 | 0.838 | > 5.12 | – | –
YH-13 (glioma, adherent) | 0.986 | > 20 | 0.949 | > 4 | 0.798 | 2.59 | – | –

From the supplement of paper PMC4967469
